Values marked as one replicate rest on one cluster of the flow cell; about a third of the high ones do not repeat.
The sequences below were run on ATP (assay: switch fluorescence ratio, 500 uM ATP over buffer (Cy3 cluster intensity, sum of 5 cycles each) (fold (ratio)); higher = stronger signal-on switching upon ATP binding; sequences stand for … in TCGTCGGCAGCGTCAGATGTGTATAAGAGACAGTTTTTTTTTTTTTTTTTTTTTTTTT…TC). Details: aptamer strand: ATP DNA aptamer (quencher-CACCTGGGGGAGTATTGCGGAGGAAGG + anchor), 100 nM annealed; ATP concentration: 500 uM; one replicate.
In short: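 Imaging in selection buffer was followed by imaging after 15 min with 500 uM ATP at 22 °C, for Cy3-labelled switching-strand clusters annealed to 100 nM quencher-labelled ATP aptamer on a modified Illumina MiSeq flow-cell. Five of these buffer/ATP cycles ran, separated by NaOH stripping and re-annealing. The fluorescence ratio per cluster is summed target-cycle over summed buffer-cycle Cy3 intensity, averaged per switch-domain sequence; clusters outside 100-1000 RFU were removed.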
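Also: ATP exposure 15 min at 22 °C before imaging.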

Sequence | switch fluorescence ratio
ACTCCGAGCA | 2.67
ACTCCTAGGC | 1.48
ACTCTATGGT | 1.07
ACTCTCGACT | 1.04
ACTGAAGATC | 1.01
ACTGACTCTG | 1.11
ACTGATAATT | 1.02
ACTGCACCAT | 1.34
ACTGCCCCGG | 4.26
ACTGCCCTGG | 2.03
ACTGCGTCCC | 1.08
ACTGGCGCTG | 1.03
ACTGGCGGCC | 0.962
ACTGGCTTAT | 1.04
ACTGGGGGA | 0.978
ACTGGGGGTC | 0.986
ACTGGTCAGA | 0.958
ACTGTACTTA | 1.34
ACTGTCTCAT | 0.974
ACTGTGCATA | 1.5
ACTGTGCTAA | 1.06
ACTGTGGCAA | 0.931
ACTGTGGTTT | 1.03
ACTGTTGAAC | 1.04
ACTGTTTGAA | 0.979

Sequence | switch fluorescence ratio
ACTTAAATCT | 1.41
ACTTAACTCG | 1.05
ACTTACCTT | 1.22
ACTTAGATT | 1.04
ACTTAGCAAC | 1.93
ACTTAGCCAA | 1.08
ACTTATTCTG | 1.03
ACTTCAGGTA | 1.02
ACTTCTTGGT | 0.996
ACTTGAAAAA | 0.952
ACTTGCGTTG | 1.03
ACTTGCTCGG | 1.12
ACTTGCTGTG | 0.98
ACTTGGAATA | 1.05
ACTTGGATTT | 1.02
ACTTGGTTAG | 1.02
ACTTGTTGTG | 1.04
ACTTTAATGG | 0.992
ACTTTACATG | 1.48
ACTTTACCGA | 1.32
ACTTTACGG | 1.33
ACTTTCGGCG | 1.09
ACTTTCGTGC | 1.01
ACTTTCTGGG | 0.981
ACTTTGAAAA | 0.993

Sequence | switch fluorescence ratio
ACTTTGTATC | 0.963
ACTTTTA | 0.993
AGAAAAACA | 0.993
AGAAAAATTA | 0.99
AGAAAACAGG | 1
AGAAAAGAAA | 0.947
AGAAAATTCA | 1.05
AGAAACCTCC | 2.46
AGAAACGGTT | 1.03
AGAAAGCGGG | 0.992
AGAAATCCGA | 0.972
AGAACCTTCT | 2.15
AGAACGGAGG | 0.983
AGAACTTGAT | 1
AGAAGAAGTT | 0.992
AGAAGAGGCA | 0.974
AGAAGAGGGA | 0.999
AGAAGCGGTA | 1.02
AGAAGGAAGC | 0.996
AGAAGGAATC | 1.02
AGAAGGATCG | 0.999
AGAAGGTCGT | 1.04
AGAAGTATTG | 0.989
AGAAGTTGCC | 0.974
AGAATACGTT | 1.03

Sequence | switch fluorescence ratio
AGAATAGAA | 1
AGAATCAAGT | 1.01
AGAATCCACC | 1.05
AGAATCCTTA | 0.995
AGAATCGGGA | 0.965
AGAATCGGGG | 1.06
AGAATCTAAG | 1.02
AGAATCTGAG | 0.976
AGAATGAAGC | 1.03
AGAATGGAAT | 0.989
AGAATGGTAA | 1.03
AGAATTATGA | 0.985
AGAATTCGCA | 1.02
AGAATTGC | 1.07
AGAATTGGTT | 1.02
AGAATTTAAG | 1.03
AGAATTTCA | 0.989
AGACAAACGT | 1.32
AGACAAGGTA | 1.17
AGACACGAG | 1.02
AGACACTTAT | 0.984
AGACAGAAAC | 1.06
AGACAGAGAC | 1.01
AGACAGCGGT | 0.959
AGACAGCTAG | 1.05

— the supplement of paper PMC10126150
